Results as given in patent US6906072B1 (Eisai Co., Ltd., priority 2000, dated 2005).
pIC50: −log10 of the molar value.

Tested on: potential dependent calcium channel
Assay: Measurement of potential dependent calcium channel activity using fluorescent dye (fura2) in cerebral cortex synaptosome stimulated with KCl
Assay type: cell-based
Details: rat cerebral cortex synaptosome, KCl stimulation, fura2, intracellular calcium ion concentration

pIC50	SMILES
5.16	CC(C)C(C#N)(CCCN1CCN(CCOc2cccc(C#N)c2)CC1)c1cc(C#N)sc1Br (stereo not drawn) [Example 93, 1-(4-cyano-5-methyl-4-[2-bromo-5-cyano-3-thienyl)hexyl]-4-[2-(3-cyanophenoxy)ethyl]piperazine]
6.15	CSc1ccc(OCCN2CCN(CCCC(C#N)(c3cccs3)C(C)C)CC2)cc1 (stereo not drawn) [Example 94, 1-[4-cyano-5-methyl-4-(2-thienyl)hexyl]-4-[2-(4-methyltiophenoxy)ethyl]piperazine]
5.72	CC(=O)c1cccc(OCCN2CCN(CCCC(C#N)(c3cccs3)C(C)C)CC2)c1 (stereo not drawn) [Example 96, 1-[4-cyano-5-methyl-4-(2-thienyl)hexyl]-4-[2-(3-acetylphenoxy)ethyl]piperazine]
5.68	CC(=O)c1cccc(OCCN2CCN(CCCC(C#N)(c3ccsc3)C(C)C)CC2)c1 (stereo not drawn) [Example 97, 1-[4-cyano-5-methyl-4-(3-thienyl)hexyl]-4-[2-(3-acetylphenoxy)ethyl]piperazine]
6.10	CSc1ccc(OCCN2CCN(CCCC(C#N)(c3ccsc3)C(C)C)CC2)cc1 (stereo not drawn) [Example 99]
6.10	CC(C)C(C#N)(CCCN1CCN(CCOc2cccc(Br)c2)CC1)c1cccs1 (stereo not drawn) [Example 101, 1-[4-cyano-5-methyl-4-(2-thienyl)hexyl]-4-[2-(3-bromophenoxy)ethyl]piperazine]
5.72	CC(C)C(C#N)(CCCN1CCN(CCOc2ccccc2)CC1)c1cccs1 (stereo not drawn) [Example 102, 1-[4-cyano-5-methyl-4-(2-thienyl)hexyl]-4-(2-phenoxyethyl)piperazine]
5.89	CC(C)C(C#N)(CCCN1CCN(Cc2cc3cc(C#N)ccc3o2)CC1)c1cccs1 (stereo not drawn) [Example 106, 1-[4-Cyano-5-methyl-4-(2-thienyl)hexyl]-4-{[2-(5-cyanobenzofuranyl)}methyl]piperazine]
5.80	CC(C)C(C#N)(CCCN1CCN(CCOc2ccccc2)CC1)c1ccc(C#N)s1 (stereo not drawn) [Example 107, 1-[4-cyano-5-methyl-4-(5-cyano-2-thienyl)hexyl]-4-(2-phenoxyethyl)piperazine]
6.22	CC(C)C(C#N)(CCCN1CCN(CCOc2cccc(Br)c2)CC1)c1ccc(C#N)s1 (stereo not drawn) [Example 108, 1-[4-cyano-5-methyl-4-(5-cyano-2-thienyl)hexyl]-4-[2-(3-bromophenoxy)ethyl]piperazine]
6.30	CC(C)C(C#N)(CCCN1CCN(CCOc2cccc(C#N)c2)CC1)c1ccc(Br)s1 (stereo not drawn) [Example 109, 1-[4-Cyano-5-methyl-4-(2-bromo-5-thienyl)hexyl]-4-[2-(3-cyanophenoxy)ethyl]piperazine]
5.25	CC(C)C(C#N)(CCCN1CCN(CCOc2cccc(Cl)c2)CC1)c1ccc(C#N)s1 (stereo not drawn) [Example 110, 1-[4-cyano-5-methyl-4-(2-cyano-5-thienyl)hexyl]-4-[2-(3-chlorophenoxy)ethyl]piperazine]
5.23	CC(C)N(CCN1CCN(CCCC(C#N)(c2cccs2)C(C)C)CC1)c1cccc(C#N)c1 (stereo not drawn) [Example 112, 1-[4-Cyano-5-methyl-4-(2-thienyl)hexyl]-4-{N-[(3-cyanophenyl)-N-isopropylamino]ethyl]piperazine]
5.38	CC(C)C(C#N)(CCCN1CCN(CCN(C)c2cccc(C#N)c2)CC1)c1cccs1 (stereo not drawn) [Example 113, 1-[4-cyano-5-methyl-4-(2-thienyl)hexyl]-4-{N-[(3-cyanophenyl)-N-methylamino]ethyl]piperazine]
5.00	CC(C)C(C#N)(CCN1CCN(CCOc2cccc(C#N)c2)CC1)c1cccs1 (stereo not drawn) [Example 114, 1-[3-cyano-4-methyl-5-(2-thienyl)mentyl]-4-[2-(3-cyanophenoxy)ethyl]piperazine]
5.09	CC(C)C(C#N)(CCN1CCN(CCOc2ccc(F)cc2)CC1)c1cccs1 (stereo not drawn) [Example 115]
5.03	CC(C)C(C#N)(CCCN1CCN(CC2CCCCC2)CC1)c1cccs1 (stereo not drawn) [Example 116, 1-[4-Cyano-5-methyl-4-(2-thienyl)hexyl]-4-(cyclohexylmethyl)piperazine]
4.85	CC(C)C(C#N)(CCN1CCN(CCS(=O)(=O)N2CCCc3ccccc32)CC1)c1cccs1 (stereo not drawn) [Example 121, 1-[3-Cyano-4-methyl-5-(2-thienyl)pentyl]-4-[2-[N-(1 2.3.4-tetrahydro-1-quinolinyl)Sulfamoyl]ethyl]piperazine]
5.07	CC(C)C(C#N)(CCN1CCN(CCC(C#N)(c2ccccc2)C(C)C)CC1)c1ccccc1 (stereo not drawn) [Example 123, Bis-1,4-[(3-cyano-4-methyl-3-phenyl)pentyl]piperazine]
5.44	CC(C)C(C#N)(CCN1CCCN(CCC(C#N)(c2ccccc2)C(C)C)CC1)c1ccccc1 (stereo not drawn) [Example 124, Bis-1,4-[(3-cyano-4-methyl-3-phenyl)pentyl]homopiperazine]
5.41	CC(C)C(C#N)(CCCN1CC[C@H](N(CCC#N)Cc2ccccc2)C1)c1ccc(C#N)s1 (stereo partly drawn) [Example 175, 1-[4-cyano-4-(5-cyano-2-thienyl)-5-methylhexyl]-(3S)-3-[N-(2-cyanoethyl)-N-benzylamino]Pyrrolidine]
5.55	CC(C)C(C#N)(CCCN1CC[C@H](N(CCC#N)Cc2ccccc2)C1)c1cccs1 (stereo partly drawn) [Example 176, 1-[4-cyano-4-(2-thienyl)-5-methylhexyl]-(3s)-3-[N-(2-cyanoethyl)-N-Benzylamino]pyrrolidine]
5.47	CC(C)C(C#N)(CCCN1CC[C@H](N(CCC#N)Cc2cccc(C#N)c2)C1)c1cccs1 (stereo partly drawn) [Example 177, 1-[4-cyano-4-(2-thienyl)-5-methylhexyl]-(3S)-3-[N-(2-cyanoethyl)-N-(3-cyanobenzyl)amino]pyrrolidine]
4.72	CC(C)C(C#N)(CCCN[C@@H]1CCN(c2cccc(Br)n2)C1)c1cccs1 (stereo partly drawn) [Example 179, 1-(6-bromo-2-pyridyl)-(3R)-3-{N-[4-cyano-4-(2-thienyl)-5-methylhexyl]Amino}Pyrrolidine]
5.03	CC(C)C(C#N)(CCCN1CCN(Cc2nc3cc(Cl)ccc3o2)CC1)c1ccc(C#N)s1 (stereo not drawn) [Example 180, 1-[4-Cyano-4-(5-cyano-2-thienyl)-5-methylhexyl]-4-[2-(5-chlorobenzoxazoyl)methyl]piperazine]
5.07	Cc1ccc2oc(CN3CCN(CCCC(C#N)(c4ccc(C#N)s4)C(C)C)CC3)nc2c1 (stereo not drawn) [Example 181, 1-[4-Cyano-4-(5-cyano-2-thienyl)-5-methylhexyl]-4-[2-(5-methylbenzoxazoyl)methyl]piperazine]
5.11	CC(C)C(C#N)(CCCN1CCN(Cc2nc3ccccc3s2)CC1)c1ccc(C#N)s1 (stereo not drawn) [Example 182, 1-[4-Cyano-4-(5-cyano-2-thienyl)-5-methylhexyl]-4-[2-benzothiazoylmethyl]piperazine]
5.26	CC(C)C(C#N)(CCCN1CCN(CCOc2ccc(C(F)(F)F)cn2)CC1)c1cccs1 (stereo not drawn) [Example 183, 1-[4-Cyano-4-(2-thienyl)-5-methylhexyl]-4-[2-(5-trifluoromethyl-2-pyridyloxy)ethyl]piperazine]
5.27	CC(C)C(C#N)(CCCN1CCN(CCOc2ccc(C(F)(F)F)cn2)CC1)c1ccc(C#N)s1 (stereo not drawn) [Example 184, 1-[4-Cyano-4-(5-cyano-2-thienyl)-5-methylhexyl]-4-[2-(5-trifluoromethyl-2-pyridyloxy)ethyl]piperazine]
4.89	CC(C)C(C#N)(CCCN1CCN(CCOc2cncc(Cl)c2)CC1)c1cccs1 (stereo not drawn) [Example 185, 1-[4-Cyano-4-(2-thienyl)-5-methylhexyl]-4-[2-(5-chloro-3-pyridyloxy]ethyl]piperazine]

SMILES	pIC50
CC(C)C(C#N)(CCCN1CCC(N2CCC(c3ccccc3)CC2)CC1)c1ccccc1 (stereo not drawn) [Example 117, 4-[4-(4-phenylpiperidinyl)-piperidinyl]-1-isopropyl-1-phenylbutyl Cyanide]	4.96
CC(C)C(C#N)(CCCN1CCC(N2CCC(C#N)(c3ccccc3)CC2)CC1)c1ccccc1 (stereo not drawn) [Example 118, 4-[4-(4-Cyano-4-phenylpiperidinyl)-piperidinyl]-1-isopropyl-1-phenylbutyl Cyanide]	4.92
CC(C)C(C#N)(CCCN1CCC(N2CCC(Cc3ccccc3)CC2)CC1)c1ccccc1 (stereo not drawn) [Example 119, 4-[4-(4-benzylpiperidinyl)-piperidinyl]-1-isoproryl-1-phenylbutyl Cyanide]	5.27
